Reference: article PMC8232828 (Nature methods, 2021)

Biological target: the molecule itself
Experiment: PIE-FCCS

B1: amino-terminally SNAPf-tagged secretin receptor (receptor, UniProt P47872 23-440, looked up)
chain: HSTGALPRLCDVLQVLWEEQDQCLQELSREQTGDLGTEQPVPGCEGMWDNISCWPSSVPGRMVEVECPRFLRMLTSRNGSLFRNCTQDGWSETFPRPNLACGVNVNDSSNEKRHSYLLKLKVMYTVGYSSSLVMLLVALGILCAFRRLHCTRNYIHMHLFVSFILRALSNFIKDAVLFSSDDVTYCDAHRAGCKLVMVLFQYCIMANYSWLLVEGLYLHTLLAISFFSERKYLQGFVAFGWGSPAIFVALWAIARHFLEDVGCWDINANASIWWIIRGPVILSILINFILFINILRILMRKLRTQETRGNEVSHYKRLARSTLLLIPLFGIHYIVFAFSPEDAMEIQLFFELALGSFQGLVVAVLYCFLNGEVQLEVQKKWQQWHLREFPLHPVASFSNSTKASHLEQSQGTCRTSII
modifications: SNAPf tag covalently labeled with LD555p-BG (donor) or LD655-BG (acceptor); for PIE-FCCS with ATTO488-BG or DY549P1-BG
- stoichiometry N: 2
